Reference: the supplement of paper PMC4967469

Assays:
Assay in all cases: Viability of human cancer cell lines after 72 h of drug (GDSC screen)
[1] = compound: CC(C)(C)OC(=O)Nc1ccc(-c2cc(C(=O)NCCCCCCC(=O)NO)no2)cc1 [CAY10603]; conditions: top dose 20 µM; top dose inferred
Experimental: (§1)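 Human cancer cell lines in 384-well plates, medium with 10% serum, drug for 72 h over a 256-fold dose range (nine 2-fold or five 4-fold steps up to the top dose). Adherent lines were fixed and stained with the nucleic acid dye Syto60, suspension lines read with resazurin; signal relative to control wells, capped at 0 and 100%. One two-parameter sigmoid per drug and line, fitted in a mixed model over all curves with the slope shared within a line.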

[2] = compound: N#Cc1c(C2CCNCC2)cc(-c2c(O)cccc2OCC2CC2)nc1N [ACHP (KIN001-260)]; conditions: top dose 20 µM; top dose inferred
Experimental: as §1

[3] = compound: CCOc1cc(N2CCC(O)CC2)ccc1Nc1ncc2c(n1)N(C)c1ccccc1C(=O)N2C [XMD8-92]; conditions: top dose 10 µM; top dose inferred
Experimental: as §1

[4] = compound: CCc1cc2c(cc1N1CCC(N3CCOCC3)CC1)C(C)(C)c1[nH]c3cc(C#N)ccc3c1C2=O [CH5424802]; conditions: top dose 5.12 µM; top dose inferred
Experimental: as §1

Cell Line	AUC [1]	IC50 [1]	AUC [2]	IC50 [2]	AUC [3]	IC50 [3]	AUC [4]	IC50 [4]
LB373-MEL-D (melanoma, adherent)	0.585	2.13 µM	0.966	> 20 µM	0.911	> 10 µM	0.988	> 5.12 µM
LB771-HNC (head and neck, adherent)	0.78	10.4 µM	0.981	> 20 µM	0.834	8.95 µM	0.982	> 5.12 µM
LB831-BLC (bladder, adherent)	0.592	2.24 µM	0.681	4.04 µM	0.85	7.74 µM	0.987	> 5.12 µM
LB996-RCC (kidney, adherent)	0.982	> 20 µM	0.978	> 20 µM	0.844	8.97 µM	0.981	> 5.12 µM
LB1047-RCC (kidney, adherent)	0.463	0.976 µM	0.964	> 20 µM	0.894	> 10 µM	0.976	> 5.12 µM
LB2241-RCC (kidney, adherent)	0.723	5.83 µM	0.974	> 20 µM	0.855	9.47 µM	0.984	> 5.12 µM
LB2518-MEL (melanoma, adherent)	0.64	3.12 µM	0.986	> 20 µM	0.956	> 10 µM	0.987	> 5.12 µM
LC-1-sq (lung squamous cell carcinoma, adherent)	0.574	2.07 µM	0.984	> 20 µM	0.888	> 10 µM	0.96	> 5.12 µM
LCLC-97TM1 (large cell lung carcinoma, adherent)	0.487	1.15 µM	0.843	16.2 µM	0.902	> 10 µM	0.979	> 5.12 µM
LK-2 (lung squamous cell carcinoma, adherent)	0.443	0.882 µM	0.978	> 20 µM	0.938	> 10 µM	0.987	> 5.12 µM
LNCaP-Clone-FGC (prostate, adherent)	0.398	0.631 µM	0.946	> 20 µM	0.86	> 10 µM	0.982	> 5.12 µM
LOU-NH91 (lung squamous cell carcinoma, adherent)	0.609	2.56 µM	0.986	> 20 µM	0.909	> 10 µM	0.983	> 5.12 µM
LOXIMVI (melanoma, semi-adherent)	0.591	2.15 µM	0.984	> 20 µM	0.89	9.37 µM	0.989	> 5.12 µM
LP-1 (myeloma, suspension)	0.382	0.628 µM	0.918	> 20 µM	0.965	> 10 µM	0.984	> 5.12 µM
LS-123 (large intestine, adherent)	0.56	1.92 µM	0.972	> 20 µM	0.98	> 10 µM	0.971	> 5.12 µM
LS-180 (large intestine, adherent)	0.651	3.51 µM	0.985	> 20 µM	0.983	> 10 µM	0.982	> 5.12 µM
LS-513 (large intestine, adherent)	0.668	3.75 µM	0.888	> 20 µM	0.959	> 10 µM	0.987	> 5.12 µM
LS-1034 (large intestine, adherent)	0.509	1.33 µM	0.902	> 20 µM	0.892	> 10 µM	0.984	> 5.12 µM
LXF-289 (lung adenocarcinoma, adherent)	0.565	1.87 µM	0.979	> 20 µM	0.906	> 10 µM	0.981	> 5.12 µM
LoVo (large intestine, adherent)	0.738	6.02 µM	0.971	> 20 µM	0.904	> 10 µM	0.987	> 5.12 µM

Cell Line	AUC [1]	IC50 [1]	AUC [2]	IC50 [2]	AUC [3]	IC50 [3]	AUC [4]	IC50 [4]
M059J (glioma, adherent)	0.582	2.14 µM	0.821	12.8 µM	0.884	> 10 µM	0.985	> 5.12 µM
MC-CAR (haematopoietic neoplasm, suspension)	0.284	0.331 µM	0.877	16.4 µM	0.841	5.89 µM	0.988	> 5.12 µM
MDA-MB-175-VII (breast, adherent)	0.748	7.02 µM	0.968	> 20 µM	0.986	> 10 µM	0.979	> 5.12 µM
MDA-MB-330 (breast, adherent)	0.612	2.66 µM	0.983	> 20 µM	0.955	> 10 µM	0.983	> 5.12 µM
MDA-MB-415 (breast, adherent)	0.847	> 20 µM	0.97	> 20 µM	0.925	> 10 µM	0.969	> 5.12 µM
MDA-MB-468 (breast, adherent)	0.684	3.99 µM	0.973	> 20 µM	0.966	> 10 µM	0.902	> 5.12 µM
MDST8 (large intestine, adherent)	0.546	1.67 µM	0.978	> 20 µM	0.912	> 10 µM	0.985	> 5.12 µM
MES-SA (uterus, adherent)	0.992	> 20 µM	0.991	> 20 µM	0.931	> 10 µM	0.992	> 5.12 µM
MFE-280 (endometrium, adherent)	0.509	1.33 µM	0.899	> 20 µM	0.98	> 10 µM	0.981	> 5.12 µM
MFE-296 (endometrium, adherent)	0.813	11.8 µM	0.982	> 20 µM	0.906	> 10 µM	0.985	> 5.12 µM
MFE-319 (endometrium, adherent)	0.928	> 20 µM	0.989	> 20 µM	0.95	> 10 µM	0.989	> 5.12 µM
MFM-223 (breast, adherent)	0.601	2.36 µM	0.982	> 20 µM	0.856	7.89 µM	0.985	> 5.12 µM
MHH-ES-1 (Ewing sarcoma, adherent)	0.442	0.868 µM	0.84	13.5 µM	0.895	> 10 µM	0.971	> 5.12 µM
MKN28 (stomach, adherent)	0.654	3.38 µM	0.981	> 20 µM	0.849	7.77 µM	0.984	> 5.12 µM
MLMA (hairy cell leukaemia, semi-adherent)	0.322	0.397 µM	0.859	16.8 µM	0.861	8.56 µM	0.919	> 5.12 µM
MMAC-SF (melanoma, adherent)	0.576	2.04 µM	0.987	> 20 µM	0.863	9.29 µM	0.987	> 5.12 µM
MN-60 (B-cell leukaemia, suspension)	0.426	0.779 µM	0.942	> 20 µM	0.828	6.46 µM	0.893	> 5.12 µM
MOG-G-CCM (glioma, adherent)	0.462	0.968 µM	0.947	> 20 µM	0.922	> 10 µM	0.979	> 5.12 µM
MOG-G-UVW (glioma, adherent)	0.374	0.568 µM	0.981	> 20 µM	0.938	> 10 µM	0.987	> 5.12 µM
MSTO-211H (mesothelioma, adherent)	0.707	4.48 µM	0.991	> 20 µM	0.977	> 10 µM	0.991	> 5.12 µM

Cell Line	AUC [1]	IC50 [1]	AUC [2]	IC50 [2]	AUC [3]	IC50 [3]	AUC [4]	IC50 [4]
MZ1-PC (pancreas, adherent)	0.455	0.913 µM	0.898	> 20 µM	0.92	> 10 µM	0.957	> 5.12 µM
MZ2-MEL (melanoma, adherent)	0.703	5.2 µM	0.942	> 20 µM	0.878	> 10 µM	0.973	> 5.12 µM
Mo-T (hairy cell leukaemia, suspension)	0.361	0.511 µM	0.59	2.22 µM	0.898	> 10 µM	0.957	> 5.12 µM
NALM-6 (B-cell leukaemia, suspension)	0.264	0.304 µM	0.829	9.77 µM	0.879	7.4 µM	0.948	> 5.12 µM
NAMALWA (Burkitt lymphoma, suspension)	0.063	< 0.0781 µM	0.931	> 20 µM	0.915	> 10 µM	0.974	> 5.12 µM
NB5 (neuroblastoma, adherent)	0.512	1.34 µM	0.951	> 20 µM	0.923	> 10 µM	0.983	> 5.12 µM
NB6 (neuroblastoma, adherent)	0.359	0.464 µM	0.974	> 20 µM	0.831	8.47 µM	0.972	> 5.12 µM
NB7 (neuroblastoma, adherent)	0.509	1.32 µM	0.978	> 20 µM	0.985	> 10 µM	0.985	> 5.12 µM
NB13 (neuroblastoma, adherent)	0.272	0.308 µM	0.928	> 20 µM	0.916	> 10 µM	0.99	> 5.12 µM
NB69 (neuroblastoma, adherent)	0.468	1.03 µM	0.962	> 20 µM	0.727	2.52 µM	0.975	> 5.12 µM
NB(TU)1-10 (neuroblastoma, adherent)	0.408	0.724 µM	0.947	> 20 µM	0.993	> 10 µM	0.992	> 5.12 µM
NB-4 (acute myeloid leukaemia, suspension)	0.111	0.1 µM	0.618	2.48 µM	0.823	4.54 µM	0.949	> 5.12 µM
NCC021 (kidney, adherent)	0.46	0.956 µM	0.984	> 20 µM	0.97	> 10 µM	0.925	> 5.12 µM
NCI-H28 (mesothelioma, adherent)	0.843	> 20 µM	0.976	> 20 µM	0.927	> 10 µM	0.978	> 5.12 µM
NCI-H82 (small cell lung carcinoma, suspension)	0.542	1.62 µM	0.983	> 20 µM	0.969	> 10 µM	0.989	> 5.12 µM
NCI-H196 (small cell lung carcinoma, adherent)	0.361	0.508 µM	0.98	> 20 µM	0.985	> 10 µM	0.949	> 5.12 µM
NCI-H226 (lung squamous cell carcinoma, adherent)	0.437	0.836 µM	0.958	> 20 µM	0.914	> 10 µM	0.987	> 5.12 µM
NCI-H292 (lung adenocarcinoma, adherent)	0.357	0.461 µM	0.925	> 20 µM	0.851	> 10 µM	0.977	> 5.12 µM
NCI-H345 (small cell lung carcinoma, suspension)	0.533	1.54 µM	0.98	> 20 µM	0.989	> 10 µM	0.985	> 5.12 µM
NCI-H441 (lung adenocarcinoma, adherent)	0.882	> 20 µM	0.973	> 20 µM	0.962	> 10 µM	0.98	> 5.12 µM

Lines with a small IC50 respond at low doses; where the fit passes the top or lowest dose, that dose stands as a limit. The AUC spans the tested range (256-fold, ending at the top dose) of the same fit: 1 means no effect, lower means more sensitive. A top dose marked as inferred is not printed in the source and was worked back from the curve model.
